In PMC10668032:
The other results are listed elsewhere or left out. At the low end of the ranking the order means little.

These sequences were tested against SIX1 homeodomain (reference allele) (UniProt Q15475) (assay: universal protein binding microarray). Conditions: Universal all-10-mer PBM (8x60K, AMADID 030236), 300 nM GST-tagged protein, Alexa Fluor 488 anti-GST; buffer, salt, pH and temperature not stated; high values mean tight binding; most listed sequences are background and not binding sites; double strand, one strand shown.

| Sequence | binding signal |
| --- | --- |
| AACGCGCC | -0.105 E-score |
| CCAGGACA | 0.0172 E-score |
| GTGTGTCA | 0.00739 E-score |
| ACCTAGCA | 0.0052 E-score |
| CCCGGCTC | 0.0823 E-score |
| CGCAGGTA | 0.146 E-score |
| AGAGGAAC | -0.183 E-score |
| AGTCTTCG | -0.142 E-score |
| AGCGGGCC | -0.191 E-score |
| GCAACTGC | -0.217 E-score |
| ATGTCTCC | -0.0122 E-score |
| ACTGGCCG | -0.304 E-score |
| ACGAAAGT | -0.264 E-score |
| CTCGCTGA | -0.0845 E-score |
| GACTAGGC | -0.111 E-score |
| GAAATCTA | -0.0547 E-score |
| GACTGAGA | -0.0604 E-score |
| GCATAGAA | -0.102 E-score |
| GTGTCGGA | 0.322 E-score |
| ACTCTGCC | -0.221 E-score |
| GAACTGTC | -0.121 E-score |
| AGATCTTG | 0.19 E-score |
| ATAACGAA | 0.0359 E-score |
| AGCATTTA | -0.212 E-score |
| CAGCAAAA | -0.155 E-score |

| Sequence | binding signal |
| --- | --- |
| CGTGGGCA | -0.0797 E-score |
| ACTGCTCT | -0.0541 E-score |
| ACCTGTCT | 0.0795 E-score |
| GAGGACGC | -0.127 E-score |
| ATGTGAAG | -0.00791 E-score |
| AACCTCCA | -0.207 E-score |
| AATGTTAT | -0.085 E-score |
| AATCACTC | -0.0897 E-score |
| ACAAGTGT | -0.0289 E-score |
| ACCGGTCT | -0.0396 E-score |
| ACAAGTGG | -0.196 E-score |
| CAATTTTA | -0.27 E-score |
| ATCGAGAG | 0.0886 E-score |
| CACCAGTG | 0.0929 E-score |
| ACGGCGGG | 0.149 E-score |
| ATTTGTAG | -0.0383 E-score |
| AAAGTGCA | -0.244 E-score |
| ACGCCAGC | -0.183 E-score |
| AGGCTGCA | -0.192 E-score |
| ACATTTGC | -0.183 E-score |
| GCTTTGGA | -0.0772 E-score |
| CATGTGAC | -0.121 E-score |
| CAAACAAA | -0.133 E-score |
| TTCAGAAA | -0.254 E-score |
| GTACAGTA | -0.0218 E-score |

| Sequence | binding signal |
| --- | --- |
| AGCTCCCC | -0.0393 E-score |
| CGGGGACA | -0.0607 E-score |
| CGTCCGTA | -0.154 E-score |
| CCCCGGCA | 0.0341 E-score |
| AGATGGAC | -0.0838 E-score |
| GCCAGCGA | -0.00521 E-score |
| ACGGAATC | 0.0538 E-score |
| AAGGTAAG | -0.0522 E-score |
| CATACACC | 0.256 E-score |
| GATGGGCA | 0.0662 E-score |
| CTTAACTC | -0.208 E-score |
| CACGTACA | 0.137 E-score |
| GGCGACCC | -0.0127 E-score |
| ATCGGAAA | 0.159 E-score |
| ACGCGCTC | -0.173 E-score |
| TCTCGTAA | 0.045 E-score |
| CCCCCTAA | -0.0311 E-score |
| GTGGATCA | 0.4 E-score |
| ACTCAGAA | -0.204 E-score |
| GGCGCGTA | -0.00413 E-score |
| GGACACTA | 0.132 E-score |
| CATCAAGG | -0.085 E-score |
| GAGCTTTA | -0.245 E-score |
| CAGCAGCG | -0.213 E-score |
| ATGAACCC | 0.103 E-score |

| Sequence | binding signal |
| --- | --- |
| CATAATAG | 0.0415 E-score |
| AGTTGACC | -0.115 E-score |
| AGGATGAA | -0.0527 E-score |
| AATGGGTA | 0.125 E-score |
| AAAGCGAC | -0.185 E-score |
| ATCCTGTG | 0.254 E-score |
| ATGTTTTA | -0.282 E-score |
| ATGCGCCG | 0.0222 E-score |
| CAAGCACC | -0.0665 E-score |
| ATGACGGG | 0.0568 E-score |
| CCTAAGTA | -0.0204 E-score |
| AGAATCGA | -0.108 E-score |
| CACCCTAA | 0.132 E-score |
| GGCGTCAC | -0.152 E-score |
| CCGTCATA | 0.0967 E-score |
| CGAATCCG | 0.24 E-score |
| CTCAGCTC | -0.0319 E-score |
| CAACGATG | -0.149 E-score |
| CTCATTTC | -0.111 E-score |
| CGGGCAAG | 0.0528 E-score |
| AATGCTCA | -0.164 E-score |
| AGCAGCTC | -0.148 E-score |
| GCCAGACA | 0.0194 E-score |
| AAGACGGA | 0.0222 E-score |
| AGCCTTCG | -0.0779 E-score |

| Sequence | binding signal |
| --- | --- |
| CCGGACTC | -0.0916 E-score |
| GGCTCTCA | -0.0772 E-score |
| ACATACGG | 0.0406 E-score |
| GTGTGGAA | -0.14 E-score |
| TTACGTAA | -0.257 E-score |
| GACGAATC | -0.018 E-score |
| CACGCGCC | -0.00834 E-score |
| ACCCTGCA | 0.125 E-score |
| GGCATCAA | -0.0624 E-score |
| ATAAGGAG | 0.0371 E-score |
| GACGGAGC | -0.188 E-score |
| CATAGCTA | 0.00991 E-score |
| GCAACAAC | -0.188 E-score |
| AACGTGTC | -0.0457 E-score |
| CCTTGTTA | -0.0485 E-score |
| AATGCAGG | -0.00407 E-score |
| GCCTGAAA | -0.149 E-score |
| CTTTGAAC | -0.0801 E-score |
| CTGTCTCA | 0.129 E-score |
| AAACCCTG | 0.068 E-score |
| AGGTCATG | -0.21 E-score |
| TCTCAAAA | 0.0114 E-score |
| AGTGCCAG | -0.172 E-score |
| ACGAAGAG | 0.0358 E-score |
| GGTCACTA | -0.241 E-score |

| Sequence | binding signal |
| --- | --- |
| CCTAACCG | -0.0238 E-score |
| AGATGCCT | 0.0189 E-score |
| GATAAAGC | -0.168 E-score |
| ATCAACGC | 0.0673 E-score |
| GATAGAGA | 0.0921 E-score |
| TCTTTACA | -0.134 E-score |
| CAGTCGGA | -0.118 E-score |
| AGTACGAC | -0.14 E-score |
| CTCGAATC | -0.0168 E-score |
| CTATGCGA | -0.103 E-score |
| ATAGCAAG | 0.0671 E-score |
| CCTCTGTC | -0.00682 E-score |
| TATGAGAA | 0.102 E-score |
| ACTTCCAT | -0.00885 E-score |
| CCTTTCAA | -0.121 E-score |
| GCCACCGC | -0.127 E-score |
| ATATTCGC | 0.158 E-score |
| ACCACCAA | -0.0491 E-score |
| TATTGCAA | 0.125 E-score |
| AAAACAAG | -0.115 E-score |
| AACTCAAA | -0.237 E-score |
| ATGTAACC | -0.0718 E-score |
| CTATCCCC | 0.321 E-score |
| ATGGTACA | 0.00155 E-score |
| CGAGTGGC | 0.00885 E-score |

| Sequence | binding signal |
| --- | --- |
| TCCTGACA | 0.133 E-score |
| AGTAAGAT | 0.191 E-score |
| AAAAATGT | -0.321 E-score |
| AGGTGCGG | 0.00962 E-score |
| CTTTTAAC | -0.244 E-score |
| AGTCGTAA | -0.112 E-score |
| AGTCTGGG | -0.179 E-score |
| CGTAGCAC | -0.0379 E-score |
| AAAATAGT | -0.125 E-score |
| CCCATTAA | -0.184 E-score |
| CTAGTCAA | -0.148 E-score |
| CTGCTAAC | -0.123 E-score |
| CATAATAA | 0.11 E-score |
| CGTGGACA | 0.0282 E-score |
| GGGACGAC | -0.185 E-score |
| ACGGTAGA | 0.0116 E-score |
| GATTGTAC | -0.121 E-score |
| CGCAAAAC | -0.00699 E-score |
| ACAGTTCA | -0.143 E-score |
| GACCTAAA | -0.204 E-score |
| CGATGGGC | -0.12 E-score |
| GTGCACGA | -0.0526 E-score |
